The list shows a part of the results. Most values come without repeats; read them as rough.
test system: SkMel5; experiment: cell count relative to DMSO control; melanoma cells; higher = more viable cells; conditions: library dose: low library concentration; 72 h
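Further: cell number obtained by counting DAPI-stained nuclei in high-throughput microscope images with image analysis software, screen run in 1,536-well plates.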

SMILES | cell count [%]
Cn1c(Nc2ccc(C(F)(F)F)cc2)nc2cc(Oc3ccnc(-c4ncc(C(F)(F)F)[nH]4)c3)ccc21 + N#Cc1c(O)c2c(-c3ccc(-c4ccccc4O)cc3)csc2[nH]c1=O [A769662] (first compound 0.08 µM, partner dose 2 µM) | 68.5
O=C(CCCCCCC(=O)Nc1ccccc1)NO [vorinostat] + COc1ccc(-c2ccc3c(N4CCOCC4)nc(N4C[C@@H](C)O[C@@H](C)C4)nc3n2)cc1CO [KU0063794] (first compound 0.08 µM, partner dose 0.02 µM) | 82
C#Cc1cccc(Nc2ncnc3cc(OCCOC)c(OCCOC)cc23)c1 [erlotinib] + N#Cc1c(O)c2c(-c3ccc(-c4ccccc4O)cc3)csc2[nH]c1=O [A769662] (first compound 0.8 µM, partner dose 2 µM) | 105
COCC[n+]1c2c(n(Cc3cnccn3)c1C)C(=O)c1ccccc1C2=O + COC(=O)c1sccc1S(=O)(=O)Nc1ccc(Nc2ccccc2)cc1OC [GSK0660] (first compound 0.0004 µM, partner dose 1 µM) | 71.8
COCC[n+]1c2c(n(Cc3cnccn3)c1C)C(=O)c1ccccc1C2=O + Cn1cc(/C=C2\C(=O)Nc3cccnc32)c2ccccc21 [GW441756] (first compound 0.0004 µM, partner dose 0.4 µM) | 82.2
Cn1c(Nc2ccc(C(F)(F)F)cc2)nc2cc(Oc3ccnc(-c4ncc(C(F)(F)F)[nH]4)c3)ccc21 + CCc1ccc(CCOc2ccc(CC3SC(=O)NC3=O)cc2)nc1 [pioglitazone] (first compound 0.08 µM, partner dose 2 µM) | 71.5
COCC[n+]1c2c(n(Cc3cnccn3)c1C)C(=O)c1ccccc1C2=O + CC(C)CCN1c2nc(Nc3cc(F)c(O)c(F)c3)ncc2N(C)C(=O)C1C [BID1870] (first compound 0.0004 µM, partner dose 0.2 µM) | 85.9
O=C(CCCCCCC(=O)Nc1ccccc1)NO [vorinostat] + CC(C)CCN1c2nc(Nc3cc(F)c(O)c(F)c3)ncc2N(C)C(=O)C1C [BID1870] (first compound 0.08 µM, partner dose 0.2 µM) | 82.3
C#Cc1cccc(Nc2ncnc3cc(OCCOC)c(OCCOC)cc23)c1 [erlotinib] + O=C(O)C(=O)Nc1sc2c(c1C(=O)O)CCNC2 [TCS401] (first compound 0.8 µM, partner dose 1.66667 µM) | 88.2
C#Cc1cccc(Nc2ncnc3cc(OCCOC)c(OCCOC)cc23)c1 [erlotinib] + COc1ccc2c(c1)CCC1C2CCC2(C)C(NCCCCCCN3C(=O)C=CC3=O)CCC12 [U73122] (first compound 0.8 µM, partner dose 0.4 µM) | 106
C#Cc1cccc(Nc2ncnc3cc(OCCOC)c(OCCOC)cc23)c1 [erlotinib] + Cc1cc([N+](=O)[O-])ccc1NS(=O)(=O)c1cc(Cl)ccc1Cl [FH535] (first compound 0.8 µM, partner dose 1 µM) | 93.3
COCC[n+]1c2c(n(Cc3cnccn3)c1C)C(=O)c1ccccc1C2=O + COc1cc2ncnc(Nc3ccc(Oc4ccccc4)cc3)c2cc1OC [SrcI1] (first compound 0.0004 µM, partner dose 2 µM) | 72.5
Nc1cccc2c1CN(C1CCC(=O)NC1=O)C2=O (stereo unspecified) [lenalidomide] + O=c1cc(-c2cccc3c2Sc2ccccc2S3)oc(N2CCOCC2)c1 [KU55933] (first compound 1 µM, partner dose 1 µM) | 91.5
Nc1cccc2c1CN(C1CCC(=O)NC1=O)C2=O (stereo unspecified) [lenalidomide] + COc1ccc(-c2ccc3c(N4CCOCC4)nc(N4C[C@@H](C)O[C@@H](C)C4)nc3n2)cc1CO [KU0063794] (first compound 1 µM, partner dose 0.02 µM) | 105
Nc1cccc2c1CN(C1CCC(=O)NC1=O)C2=O (stereo unspecified) [lenalidomide] + Cc1cc([N+](=O)[O-])ccc1NS(=O)(=O)c1cc(Cl)ccc1Cl [FH535] (first compound 1 µM, partner dose 1 µM) | 80
Nc1cccc2c1CN(C1CCC(=O)NC1=O)C2=O (stereo unspecified) [lenalidomide] + COc1cc2ncnc(Nc3ccc(Oc4ccccc4)cc3)c2cc1OC [SrcI1] (first compound 1 µM, partner dose 2 µM) | 109
